In PubChem BioAssay AID1768 (National Center for Advancing Translational Sciences (NCATS), 2009):
The campaign covered roughly 270,000 compounds. About 620 (0.23%) were called active. This list was built around the results that the source calls inconclusive (neither active nor inactive); the mix of calls is not that of the screen. Calls follow the shape of the dose curve; as a rule, active = well fitted inhibition curve with a large enough effect in the polarisation, with a control signal flat (not every such curve was filed as active); inconclusive = small, poorly fitted or top-dose-only effect, or effect the other way, or a change in a side signal; inactive = no such curve, though single readings can be large or run the other way; the % refers to the polarisation. Potencies beside an inconclusive call are fits to weak or partial responses and may not hold up. A note “side channel” means that the fit belongs to a control or component signal, not to the main read-out.

target: Menin (Homo sapiens) (UniProt O00255); assay: qHTS Assay for Inhibitors Targeting the Menin-MLL Interaction in MLL Related Leukemias: Competition With Texas Red Labeled MLL-derived Mutant Peptide; settings: fluorescence polarization; series mostly up to 61.6 µM
Chain of UniProt O00255 (O00255 whole entry, looked up): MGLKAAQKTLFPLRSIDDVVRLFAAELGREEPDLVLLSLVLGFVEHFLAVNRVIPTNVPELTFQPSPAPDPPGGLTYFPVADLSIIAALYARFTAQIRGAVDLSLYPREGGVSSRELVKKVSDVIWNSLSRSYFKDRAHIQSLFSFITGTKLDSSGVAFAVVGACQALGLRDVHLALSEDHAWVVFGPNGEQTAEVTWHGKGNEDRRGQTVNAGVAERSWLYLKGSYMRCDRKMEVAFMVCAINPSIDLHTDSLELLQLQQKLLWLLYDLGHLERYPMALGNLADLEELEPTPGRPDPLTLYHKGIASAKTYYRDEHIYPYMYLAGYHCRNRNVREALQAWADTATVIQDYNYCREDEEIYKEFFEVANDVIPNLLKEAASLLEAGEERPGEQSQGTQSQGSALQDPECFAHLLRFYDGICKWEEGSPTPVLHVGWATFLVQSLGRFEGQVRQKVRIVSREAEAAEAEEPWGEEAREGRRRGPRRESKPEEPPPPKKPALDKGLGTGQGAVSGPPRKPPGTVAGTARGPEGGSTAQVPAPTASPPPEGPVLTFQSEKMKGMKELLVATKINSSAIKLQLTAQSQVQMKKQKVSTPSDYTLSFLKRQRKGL
Potency is read from the fitted curve at half-maximal effect; tags tell the direction and shape of the fitted curve or compound fluorescence and quenching.

Row | SMILES | Potency
1 | COC(=O)c1ccc(CN2CCN(C(C)C)C(CCO)C2)cc1 (stereo unspecified) | inconclusive: 39.8 µM [inhibitor, single point]
2 | Cc1ccc(S(=O)(=O)N(CC(=O)Nc2ccccc2C(=O)O)c2ccc(Cl)cc2)cc1 | inconclusive: 12.6 µM [quencher, side channel, partial curve]
3 | CC1=NN(c2ccc(C(=O)O)cc2)C(=O)/C1=C/c1ccc(-c2ccccc2F)o1 | inconclusive: 17.8 µM [quencher, side channel, partial curve]
4 | COCCCNC(=O)CC(=O)N/N=C\c1ccc(SC)cc1 | inconclusive: 35.5 µM [quencher, side channel, single point]
5 | CCOc1ccccc1CNC(=O)c1nn(CC)cc1[N+](=O)[O-] | inconclusive: 39.8 µM [inhibitor, single point]
6 | Cn1cc([N+](=O)[O-])cc1-c1nc2ccccc2n1C | inconclusive: 35.5 µM [quencher, side channel, partial curve]
7 | Cc1ccc(S(=O)(=O)N(Cc2cc3cc4c(cc3[nH]c2=O)OCCO4)CC2CCCO2)cc1 (stereo unspecified) | inconclusive: 22.4 µM [fluorescent, side channel, partial curve]
8 | Nc1ccccc1N=Cc1ccc(-c2cccc(Cl)c2)o1 | inconclusive: 5.01 µM [quencher, side channel, partial curve]
9 | Cc1c(O)c(O)cc2c1oc1c3ccccc3oc(=O)c21 | inconclusive: 20 µM [quencher, partial curve]
10 | COc1ccc(NC(=O)CSc2nnc(-c3ccco3)c(-c3ccco3)n2)cc1OC | inconclusive: 15.8 µM [quencher, side channel, single point]
11 | COc1ccc(O[C@H]2C=C[C@@H](c3ccccc3)O[C@@H]2CO/N=C/C[C@@H]2C=C[C@H](OC(C)=O)[C@@H](COC(C)=O)O2)cc1 | inconclusive: 1.26 µM [fluorescent, side channel, full curve, poor fit]
12 | O=C(CSc1nnc(-c2cccnc2)o1)Oc1ccccc1 | inactive
13 | CCN(C(=O)CSc1ncccc1C(=O)OC(C)C)c1cccc(C)c1 | inconclusive: 3.16 µM [fluorescent, side channel, full curve]
14 | COc1ccc(/C=C/C(=O)NC(=S)NNC(=O)Cc2cccs2)cc1 | inconclusive: 31.6 µM [quencher, side channel, single point]
15 | Nc1c(Br)cc(Br)cc1CNC1CCC(O)CC1 (stereo unspecified) | inactive
16 | Nc1cc(-c2ccncc2)c[nH]c1=O | inconclusive: 6.31 µM [quencher, side channel, partial curve]
17 | COc1ccccc1NC(=O)Nc1cc(F)ccc1F | inconclusive: 28.2 µM [quencher, side channel, single point]
18 | CCCN(CCC)c1nc(-c2ccccn2)nc2ccccc12 | inconclusive: 10 µM [fluorescent, side channel, partial curve]
19 | CCCCCC(=O)c1c(O)cc(OC)c(Cl)c1O | inconclusive: 10 µM [quencher, side channel, partial curve]

Row | SMILES | Potency
20 | CCC(CC)C(=O)Nc1cccc(C(=O)Nc2ccc3c(c2)OCO3)c1 | inconclusive: 31.6 µM [quencher, side channel, single point]
21 | CN(CC(=O)Nc1ccc(F)c(F)c1F)C(=O)/C=C/c1ccc(Cl)cc1 | inconclusive: 39.8 µM [inhibitor, single point]
22 | O=C(Nc1cccnc1)c1ccc(Cl)c(S(=O)(=O)N2CCc3ccccc32)c1 | inconclusive: 25.1 µM [quencher, side channel, partial curve]
23 | Cc1ccc(S(=O)(=O)c2nnn3c2nc(NCCCN2CCCC2=O)c2ccccc23)cc1C | inactive
24 | COc1ccc(Oc2cc(NN3CCCCC3)c([N+](=O)[O-])cc2[N+](=O)[O-])cc1OC | inconclusive: 35.5 µM [quencher, side channel, single point]
25 | Cc1ccc(C)c2nc(SCC(=O)NCc3cccs3)c(C#N)cc12 | inconclusive: 8.91 µM [inhibitor, single point]
26 | COc1ccc2[nH]c(C(=O)O)c(CCNC(=O)/C=C/c3ccc(O)c(OC)c3)c2c1 | inconclusive: 20 µM [quencher, side channel, partial curve]
27 | Cc1cc(C)nc(N/N=C/c2c(CO)cnc(C)c2O)n1 | inactive
28 | CCOC(=O)c1ccc(N2NC(=O)/C(=C/c3ccc(OC(=O)c4ccco4)c(OC)c3)C2=O)cc1 | inconclusive: 11.2 µM [quencher, side channel, partial curve]
29 | Nc1ccc(C(=O)N/N=C/c2cccc(Oc3ccccc3)c2)cc1 | inconclusive: 12.6 µM [quencher, side channel, partial curve]
30 | COc1ccc(-c2cc3nc(-c4ccccc4)cc(N4CCC(O)CC4)n3n2)cc1 | inconclusive: 10 µM [quencher, side channel, partial curve]
31 | COc1ccccc1C1C(C(=O)c2cc3ccccc3o2)=C(O)C(=O)N1c1cc(C)on1 (stereo unspecified) | inconclusive: 15.8 µM [quencher, side channel, partial curve]
32 | COc1ccccc1/C=C1\SC(=S)N(CCC(=O)Nc2ccc(C(=O)O)c(O)c2)C1=O | inconclusive: 12.6 µM [quencher, side channel, partial curve]
33 | COc1ccccc1NC(=O)Cc1csc(NC(=S)Nc2ccccc2)n1 | inconclusive: 39.8 µM [inhibitor, single point]
34 | Clc1ccc(CSc2ncccn2)cc1 | inactive
35 | CNC[C@H](CC1CCCCC1)NC[C@H](CO)NCCc1cccc(C(F)(F)F)c1 | inconclusive: 31.6 µM [inhibitor, single point]
36 | O=C(NCCC1=CCCCC1)c1cccc2c1C(=O)N(C1CCCCC1)C2 | inconclusive: 2.24 µM [fluorescent, side channel, full curve, poor fit]
37 | N#Cc1cccc(CS(=O)(=O)c2nc3ccccc3s2)c1 | inactive
38 | C=CCOC(=O)C1=C[C@H](C2CCCCC2)[C@@H](CCCO)[C@H](OCC)O1 | inconclusive: 3.55 µM [fluorescent, side channel, full curve]

Row | SMILES | Potency
39 | Cc1cc(NS(=O)(=O)c2ccc(NC(=O)Nc3cccc(C(F)(F)F)c3)cc2)no1 | inconclusive: 10 µM [quencher, side channel, partial curve]
40 | CC(C)CCn1c(=O)c2c(nc3n2CCCN3Cc2ccccc2)n(C)c1=O | inconclusive: 17.8 µM [fluorescent, side channel, partial curve]
41 | C/C(=N\NC(=O)c1ccc(Br)cc1)c1cccnc1 | inconclusive: 6.31 µM [quencher, side channel, single point]
42 | O=C(Nc1ccc([N+](=O)[O-])cc1)N1CCc2ccccc2C1 | inconclusive: 39.8 µM [quencher, side channel, single point]
43 | Cc1cc(C)c(NC(=O)CN2CCCCCC2)c(C)c1 | inconclusive: 35.5 µM [inhibitor, partial curve]
44 | CO[C@@H]1/C=C\CC(=O)N[C@@H](C)C(=O)OC[C@@H](OC)[C@H](C)CCCC(=O)OC[C@H]1C | inconclusive: 0.708 µM [inhibitor, partial curve]
45 | Cc1ccc(-c2ccc(SCC(=O)NC3CCCC3)nn2)cc1 | inconclusive: 25.1 µM [fluorescent, side channel, partial curve]
46 | O=C(O)c1cc(=O)c2ccc(Cl)cc2[nH]1 | inconclusive: 11.2 µM [inhibitor, partial curve, poor fit]
47 | COc1ccc(NC(=O)Cn2c(=O)n(-c3ccccc3)c(=O)c3sccc32)c(OC)c1 | inconclusive: 17.8 µM [fluorescent, side channel, partial curve]
48 | O=C(NC1=NCCS1)c1ccc(Cl)c(S(=O)(=O)N2CCCCC2)c1 | inconclusive: 22.4 µM [quencher, side channel, single point]
49 | COc1cc2c(cc1OC)CN(CC(=O)Nc1ccc(C)c(C)c1)CC2 | inconclusive: 0.708 µM [inhibitor, full curve, poor fit]
50 | Cc1ccc(-n2cc(CNCCn3nc(C)cc3C)c(-c3ccc(F)cc3)n2)cc1 | inconclusive: 3.16 µM [fluorescent, side channel, partial curve]
51 | O=[N+]([O-])c1ccc(O)c(Nc2ncnc3ccccc23)c1 | inconclusive: 25.1 µM [quencher, side channel, partial curve]
52 | COCCN(C(=S)Nc1cc(C)cc(C)c1)C(C)c1cccnc1 (stereo unspecified) | inconclusive: 28.2 µM [inhibitor, single point]
53 | COC(=O)[C@H](Cc1c[nH]c2ccccc12)NC(=O)Cc1c[nH]c2ccccc12 | inconclusive: 1260 µM [inhibitor, partial curve]
54 | CCOC(=O)c1c(C)[nH]c2c1cc(O)c1ccccc12 | inconclusive: 17.8 µM [quencher, side channel, partial curve]
55 | O=C(Nc1ccccc1O)C(c1ccccc1)c1ccccc1 | inconclusive: 7.94 µM [quencher, side channel, full curve]
56 | O=C1Nc2ccc([N+](=O)[O-])cc2OC1CCN1CCN(c2ccccc2)CC1 (stereo unspecified) | inconclusive: 22.4 µM [quencher, side channel, single point]
